Assay results from PubChem BioAssay AID1346428 (National Center for Advancing Translational Sciences (NCATS), 2018).
Screen size: about 48,000 compounds; about 1,200 (2.5%) were called active. Roughly 2% stayed inconclusive and do not appear here.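 The calls were made as follows: active = activation of at least 60% and not above a set upper limit (about 1 call in 100 departs from these limits); inconclusive = activation of 40% to 60%, or above that upper limit; inactive = activation under 40%.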 This is one part of the list.

The molecules below were run against Probable G-protein coupled receptor 32 (Homo sapiens) (UniProt O75388) (assay: qHTS for Agonists of Human Resolvin D1 Receptor DRV1). Details: CHO-K1 GPR32 beta-arrestin PathHunter luminescence, 90 min; at 76.9 µM; stronger effect = higher value; zero percent set by DMSO-only wells.
In short: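 PathHunter beta-arrestin recruitment in CHO-K1 cells stably expressing ProLink-tagged GPR32. Cells were exposed to compound for 90 min at 37 C, then chemiluminescence was read after 1 h detection at ambient temperature; DMSO served as basal control.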
Also: 0% is about no effect.

Chain of UniProt O75388 (O75388 whole entry, looked up): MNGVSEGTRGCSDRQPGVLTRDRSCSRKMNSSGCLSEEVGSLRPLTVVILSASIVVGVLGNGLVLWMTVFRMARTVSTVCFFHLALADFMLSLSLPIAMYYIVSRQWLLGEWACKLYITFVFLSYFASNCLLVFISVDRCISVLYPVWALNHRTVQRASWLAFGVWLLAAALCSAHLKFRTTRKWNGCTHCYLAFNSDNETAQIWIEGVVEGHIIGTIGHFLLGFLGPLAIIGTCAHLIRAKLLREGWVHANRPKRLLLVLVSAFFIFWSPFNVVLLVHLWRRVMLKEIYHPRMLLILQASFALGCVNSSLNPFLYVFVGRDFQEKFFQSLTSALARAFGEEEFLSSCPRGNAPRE

activation, inactive:
COc1ccc(NC(=O)C2=C(C)Nc3nc(CCCO)nn3C2c2ccc(O)cc2)cc1 (stereo not drawn) -1.68%
CC(C)N(Cc1ccccc1)c1ncnc2c1nnn2C -14.5%
CCOc1ccc(C(c2c(O)cc(C)n(CCOC)c2=O)N2CCN(c3ccccc3F)CC2)cc1 (stereo not drawn) -16.4%
COc1ccc(NC(=O)C(c2ccc(C)cc2)N(C)C(=O)Cc2cccs2)cc1 (stereo not drawn) -23%
COc1ccccc1CNC(=O)CSc1ncc2c(n1)-c1ccc(Cl)cc1N(Cc1ccccc1)S2(=O)=O -5.33%
Cc1c(Cl)cccc1NC(=O)C(C)n1c(=O)cc(-c2ccccc2)c2c(C)nn(C)c21 (stereo not drawn) 17.7%
CCc1ccc(NC(=O)c2sc3nc(C)c(Cl)c(C)c3c2N)cc1 7.84%
O=C(Cn1c(-c2cccs2)cc2cc(Cl)ccc21)N1CCN(c2ccccc2)CC1 -5.97%
O=C(Cn1c(=O)c2cc(Cl)ccc2n2nncc12)Nc1ccccc1 -4.1%
Cc1ccc(NC(=O)C2CCCN2S(=O)(=O)c2ccc3c(c2)CCCC(=O)N3)cc1C (stereo not drawn) 7.48%
CCOc1ccccc1C(=O)N1CC(=O)Nc2ccc(Cl)cc2C1c1ccccc1 (stereo not drawn) -22.2%
COc1ccc(-c2cccc(NS(=O)(=O)c3cc(C)c(OC)c(C)c3C)c2)nn1 35.6%
C=CCC(CC=C)(CNC(=O)C(=O)Nc1cccc(C(F)(F)F)c1)c1ccccc1 -9.67%
O=C(CC(c1cccs1)N1Cc2ccccc2C1=O)Nc1ccc(F)c(Cl)c1 (stereo not drawn) 23.8%
CC(=O)Nc1cc(C(=O)NCc2ccc(C)cc2)ccc1Sc1ccc(C)cc1 -13.4%
CC(CNC(=O)Cn1ccc2cc(S(=O)(=O)N3CCCCCC3)ccc21)c1ccccc1 (stereo not drawn) -0.678%
COc1ccc(Cl)cc1NC(=O)CN(C)S(=O)(=O)c1ccc2c(c1)CCCN2C(C)=O 18.9%
CCOC(=O)c1ccc(N2CCN(c3cccc(Cl)c3)CC2)c(NC(=O)Nc2ccc(OC)cc2OC)c1 -24.8%
CCc1ccc(-c2nc(CN3CCCC(C(=O)N4CCN(c5cc(Cl)ccc5C)CC4)C3)c(C)o2)cc1 (stereo not drawn) -5.86%
COc1ccc(-c2onc(C)c2C)cc1S(=O)(=O)NCC1CCN(Cc2ccccc2F)CC1 0.724%
CCOC(=O)CSc1nc2ccccc2c(=O)n1CCc1ccc(OC)c(OC)c1 -0.0625%
CCC1CN(C(=O)N2CCC(C(=O)NCCN(CC)CC)CC2)c2ccccc2O1 (stereo not drawn) -4.28%
Cc1cccc(-n2c(=O)c3c(c4cc(C)ccc4n3C)n(CC(=O)NCCC3=CCCCC3)c2=O)c1 0.416%
